The whole screen tested about 310,000 compounds, of which about 14,000 (4.5%) showed an effect of 50% or more. The effect is printed as a negative number. This is one part of the list.
Each molecule was assayed against human ether-à-go-go-related gene (hERG) potassium channel (human, UniProt Q12809) (assay: primary screen, population patch clamp on CHO cells stably expressing hERG).
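Note: peak tail current of the secondary pulse compared with the same well before compound.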

Sequence of human ether-à-go-go-related gene (hERG) potassium channel (Q12809 whole entry, looked up): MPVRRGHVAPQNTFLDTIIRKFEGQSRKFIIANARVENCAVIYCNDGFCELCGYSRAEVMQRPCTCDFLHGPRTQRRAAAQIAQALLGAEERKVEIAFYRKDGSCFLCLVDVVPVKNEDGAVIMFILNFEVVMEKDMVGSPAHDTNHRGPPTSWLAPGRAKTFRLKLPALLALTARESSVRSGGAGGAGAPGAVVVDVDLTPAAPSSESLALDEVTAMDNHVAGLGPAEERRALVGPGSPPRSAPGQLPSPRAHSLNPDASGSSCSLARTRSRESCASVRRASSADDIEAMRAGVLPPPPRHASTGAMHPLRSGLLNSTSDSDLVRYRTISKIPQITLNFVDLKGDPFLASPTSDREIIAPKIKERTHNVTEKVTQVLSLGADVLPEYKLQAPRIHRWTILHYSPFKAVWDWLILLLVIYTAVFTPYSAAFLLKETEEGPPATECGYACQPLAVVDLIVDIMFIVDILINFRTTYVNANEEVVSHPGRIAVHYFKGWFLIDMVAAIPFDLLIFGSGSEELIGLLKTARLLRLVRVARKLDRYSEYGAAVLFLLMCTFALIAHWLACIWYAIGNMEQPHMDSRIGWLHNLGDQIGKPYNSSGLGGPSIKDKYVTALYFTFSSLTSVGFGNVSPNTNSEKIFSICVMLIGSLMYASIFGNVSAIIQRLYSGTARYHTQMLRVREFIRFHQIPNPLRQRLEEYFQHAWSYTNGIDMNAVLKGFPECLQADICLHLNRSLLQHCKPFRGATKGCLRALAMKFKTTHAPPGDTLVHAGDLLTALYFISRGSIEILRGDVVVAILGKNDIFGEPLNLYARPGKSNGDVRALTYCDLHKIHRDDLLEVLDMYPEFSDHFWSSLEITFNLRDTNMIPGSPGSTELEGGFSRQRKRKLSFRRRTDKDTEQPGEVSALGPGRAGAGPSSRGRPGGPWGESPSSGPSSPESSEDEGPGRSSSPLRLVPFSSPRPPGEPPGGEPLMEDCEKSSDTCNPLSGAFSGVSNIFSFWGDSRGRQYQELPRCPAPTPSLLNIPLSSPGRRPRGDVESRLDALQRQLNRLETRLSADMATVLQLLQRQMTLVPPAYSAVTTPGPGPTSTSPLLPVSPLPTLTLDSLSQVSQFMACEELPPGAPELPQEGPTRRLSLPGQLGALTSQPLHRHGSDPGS

SMILES | hERG current change (%, negative = inhibition) at 10uM [%]
CN1CCN(c2ccc(C(F)(F)F)cc2NC(=O)c2ccco2)CC1 | -54.5
CCOC(=O)c1sc(C)c2c(=O)n(Cc3ccc(Cl)cc3)cnc12 | 9.33
COc1ccccc1CCNC(=O)C1CCN(C(=O)/C=C/c2ccccc2)CC1 | -13.8
N#CC(C#N)=C1C=C2C=C(N3CCCCC3)CCC2CC1 (centres unmarked) | -5.36
CCOC(=O)N1CCN(C(=O)c2cc3c(ccc4ccccc43)oc2=O)CC1 | -0.875
CCC(C)N(C(=O)COc1ccccc1C(=O)NCc1ccccc1)C1CCS(=O)(=O)C1 (centres unmarked) | -39.2
COc1ccc(OC)c(CN2CCN(C(=O)CCNC(=O)c3ccc(Br)cc3)CC2)c1 | -45.7
O=C1c2ccccc2C(=O)c2c1cccc2N1CCN(Cc2ccccc2)CC1 | -56.9
O=c1c2c3nc4ccccc4nc3n(/N=C/c3ccco3)c2ncn1CCC1=CCCCC1 | -8.49
Cc1ccc(S(=O)(=O)N(C)c2ccccc2C(=O)Nc2c(F)cccc2F)cc1 | 3.31
O=C(NNS(=O)(=O)c1ccc(Br)cc1)c1ccncc1 | 8.19
Cc1c(O)c2ccccc2n(-c2ccccc2)c1=O | 2.63
COc1ccc(CCNC(=O)c2cc(-c3cc(C)cc(C)c3O)n[nH]2)cc1OC | -7.88
C/C=C1\COC(C(=O)NCCCN2CCCC2=O)(C(F)(F)F)C=C1C=C(C)C (centres unmarked) | -4.43
CC1(C)CC(=O)C2=C(C1)N(Cc1ccco1)C(=O)C2(O)C(F)(F)F (centres unmarked) | -2.9
CCOC(=O)C1CCCN(S(=O)(=O)c2cc3c4c(c2)CCN4C(=O)CC3)C1 (centres unmarked) | -11.2
Cc1nc2ccccc2c(=O)n1-c1ccc([N+](=O)[O-])cc1 | 7.26
Cc1c(/C=N/N2C(=O)C3C4C=CC(C4)C3C2=O)c2ccccc2n1C (centres unmarked) | 11.7
CN1CCN(C2Cc3ccccc3Sc3cc(C(F)(F)F)ccc32)CC1.O=C(O)/C=C\C(=O)O (centres unmarked) | -70.2
CCOC(=O)C1(Cc2cccc(F)c2)CCN(CC2CC2)CC1 | -33.4
Cc1ccc(C)c(NC(=S)NC(NC(=O)Cc2cccc3ccccc23)C(Cl)(Cl)Cl)c1 (centres unmarked) | 1.79
Cc1ccc(S(=O)(=O)N2CCN(C(=O)c3cccs3)CC2)cc1 | 0.764
Cc1ccc(OC(=S)Nc2ccccc2)c(C)c1 | 6.7

SMILES | hERG current change (%, negative = inhibition) at 10uM [%]
NC(=O)c1cccc2c1C(=O)N(C1CCCCC1)C2 | -1.83
COCC(C)NC(=O)CSc1nc2ccccc2n1CCc1ccccc1 (centres unmarked) | -8.53
Cc1cc(NC(=O)c2ccco2)ncc1NC(=O)CCc1ccccc1 | -20.7
CCOc1ccc(OCCOC(=O)CN2C(=O)NC3(CCCC3)C2=O)cc1 | 5.93
Fc1cccc(Cl)c1Cn1nnc(-c2ccc3c(c2)OCO3)n1 | -1.37
CCOc1ccc(C2CC(c3ccc(F)cc3)Nc3nc(N)nn32)cc1 (centres unmarked) | -16.3
Cc1cccc(NC(=O)Nc2c(C)n(C)n(-c3ccccc3)c2=O)c1 | 2.93
Cn1ncc(-c2ccno2)c1C(=O)O | 18.9
COc1ccc(C(=O)N(CN2CCCC2=O)c2ccccc2OC)cc1OC | -20.6
Cc1ccc(C2=NS(=O)(=O)N(C)C(C(=O)N(C)C3CCCCC3)=C2)cc1 | -46.4
O=S(=O)(NC1CCC(NS(=O)(=O)c2c(F)cccc2F)CC1)c1ccc2c(c1)OCCO2 (centres unmarked) | -8.97
Cc1nc(N/N=C/c2ccc(O)cc2)c2cnn(-c3ccccc3)c2n1 | 13.9
COc1ccccc1OCCNC(=O)c1ccc(C(C)(C)C)cc1 | -13.9
COc1ccc(C2=NOC(C(=O)Nc3cccc(O)c3)C2)cc1 (centres unmarked) | -1.46
O=C(Nc1ccc(Cc2ccncc2)cc1)c1ccc(S(=O)(=O)N2CCOCC2)cc1 | -41.1
OC1C=CSc2nc3ccccc3n21 (centres unmarked) | 4.02
Cc1ccc(N(CC(=O)N/N=C/c2cc(C)n(-c3ccccc3C)c2C)S(C)(=O)=O)cc1 | -18.4
O=C(Cc1ccccc1)Nc1nc(-c2cccs2)cs1 | -4.22
C/C(=N\Nc1nncc2ccccc12)c1cccc(OC(F)F)c1 | 25.1
CCC(=O)Nc1ccc(-c2nnc(SCC(=O)Nc3nccs3)n2C)cc1 | 13.3
CCOc1ccccc1NC(=O)NCCCCc1ccccc1 | 18.3
CCC(=O)C1=C(N2CCCC2)CC(C)(C)CC1=O | 8.97
O=C(NNS(=O)(=O)c1ccc(F)cc1F)c1csc(-c2cccnc2)n1 | 15.8

SMILES | hERG current change (%, negative = inhibition) at 10uM [%]
COc1ccc(OC)c(S(=O)(=O)Nc2cccc(-c3ccc4nncn4n3)c2)c1 | 18.7
O=C(Nc1ccc(NC(=O)c2ccc(Cl)c(S(=O)(=O)N3CCOCC3)c2)cc1)c1ccccc1 | -2.67
O=C(COC(=O)CCC(=O)c1ccc(F)cc1)Nc1ccc(F)cc1F | 4.1
O=C(COc1ccc(Br)cc1)N1CCN(Cc2c[nH]c3ccccc23)CC1.O=C(O)C(=O)O | -57.9
CCOc1ccc(CNC(=O)CCCc2cn(C)c3ccccc23)cc1 | 11.7
ClC1C(Cl)C(Cl)C(Cl)C(Cl)C1Cl (centres unmarked) | 19.5
CCCc1nnc(NC(=O)CS(=O)(=O)c2ccc(C)cc2)s1 | 6.3
O=C(NCCCN1CCCC1=O)c1ccc2c(c1)NC(=O)c1ccccc1S2 | 9.95
CCOc1ccc(NC(=O)CN(C)C(=O)c2c(C)nn(-c3ccccc3)c2Cl)cc1OCC | -0.407
O=c1c2ccccc2ncn1-c1ccccc1F | 9.57
COc1cc2[nH]cc(C(=O)NCCc3ccccc3)c(=O)c2cc1OC | -22.4
CC(C)CNc1nc(=S)nc(N(C)C)[nH]1 | 16.4
CC(C)Cc1nc(SCC(=O)Nc2ccc(S(N)(=O)=O)cc2)n[nH]1 | -7.32
CC(C)c1nnc(NC(=O)CCS(=O)(=O)c2ccccc2)s1 | 19.5
CCOC(=O)c1cccc(NC(=O)CSc2nc(N)cc(N)n2)c1 | -3.02
CCOC(=O)NC(NC(=S)Nc1ccc(OC)cc1)C(Cl)(Cl)Cl (centres unmarked) | 11.3
COc1ccc(/C=C/C(=O)NC(=S)Nc2ccc(Br)cn2)cc1 | 20
Cc1ncc(CO)c(/C=N/Nc2cccc(Cl)n2)c1O.Cl | 8.89
COc1cccc(CN2CCNC(=O)C2CC(=O)N(C)C2CCOCC2)c1 (centres unmarked) | 12
COc1ccc2[nH]c(O)c(NC(C)=O)c2c1 | 1.61
Cc1cc(C)c(S(=O)(=O)c2ccc(F)cc2C)c(=O)[nH]1 | 23.6
COc1ccc(OC)c(C(=O)CSc2nc3cccnc3n2C)c1 | -0.684
COc1cc(NC(=O)c2ccccc2)ccc1NC(=O)Cc1ccccc1 | 12.9

SMILES | hERG current change (%, negative = inhibition) at 10uM [%]
CCOC(=O)C1=NOC2C3CC(C12)C1C(=O)N(CCc2ccc(OC)c(OC)c2)C(=O)C31 (centres unmarked) | 8.48
CC(NC(=O)c1ccncc1)C(C)(C)C (centres unmarked) | -7.78
O=c1ccc(Cc2ccc(Cl)cc2)n[nH]1 | 16.8
Cc1cc2nc(C3CCCN(C(=S)Nc4ccccc4)C3)[nH]c2cc1C (centres unmarked) | 25
CCc1cc(C(=O)Nc2ccc(C)cc2Br)cs1 | 9.15
Cc1oc2ccc(OC(=O)c3cccs3)cc2c1C(=O)OC(C)C | 9.9
COc1ccc(CC(=O)N(Cc2ccccc2)c2ccccc2)cc1S(=O)(=O)N1CCOCC1 | 1.07
O=C(Nc1ccccc1)NC1(C(=O)NCc2ccc3c(c2)OCO3)CCCCC1 | 30.9
O=C(c1cccc(N2CCCC2=O)c1)N1CCOCC1 | 8.67
O=C(C1CCCO1)N1CCN(C(=S)Nc2ccccc2)CC1 (centres unmarked) | -16.3
COc1ccc(NC(=O)Nc2ccc(C(=O)N3CCOCC3)cc2)cc1OC | 10.9
CN(C(=O)CSc1nnc(-c2c[nH]c3ccccc23)o1)C1CCS(=O)(=O)C1 (centres unmarked) | -21.3
CCn1c(SCC(=O)O)nc2ccccc21 | 45.9
COC(=O)C1=C(C)NC2=C(C(=O)c3ccccc32)C1c1ccc(-c2ccc(C(=O)O)cc2)o1 (centres unmarked) | 10.4
CS(=O)(=O)N1c2ccccc2[C@@]2(Br)C[C@H]3C(=O)N[C@@H](Cc4ccccc4)C(=O)N3[C@@H]12 | 12.2
Cn1c(N2CCCCC2)cc(=O)n(C)c1=O | 22.2
O=C(N/N=C/c1ccc[nH]1)c1ccncc1 | 20.2
COc1cccc(NC(=O)COC(=O)COc2ccccc2[N+](=O)[O-])c1 | 6.11
COc1ccc(S(=O)(=O)N2CCOCC2)cc1NC(=O)COC(=O)C1=COCCO1 | 5.95
Cn1c(SCC(=O)NCC2CCCO2)nc2c([nH]c3ccccc32)c1=O (centres unmarked) | -9.56
